“And” between values parts separate entries of the source, which are not always exact repeats. Equal entries are not always repeated. About 120 (0.25%) of roughly 48,000 compounds were called active. Another 4% or so got no clear call; they are omitted. Calls follow the shape of the dose curve; as a rule, active = well fitted activation curve with a large enough effect; inconclusive = small, poorly fitted or top-dose-only effect, or another doubt; inactive = no such curve, though single readings can be large or run the other way. Some of the results follow.
experiment: Primary qHTS for Identification of Small Molecule Activators of Huntingtin-Antisense Promoter Activity; settings: HEK293 HTT-AS promoter firefly luciferase reporter, 24 h; at 57.5 µM (top of the series) unless noted; also: nearly all actives have a fitted effect of over 55% in size
Method in brief: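 HEK293 Fluc reporter, 2,500 cells/well, 24 h pre-culture; cpds up to 57.5 uM final, 24 h 37 degrees C; Dual-Glo, 10 min RT; normalized vehicle = 0%, zero RLU = -100%.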

Compound	activity change, positive = activation
CC(C)(O)C(Cl)(Cl)Cl	inactive: 2.32%
COc1ccc2[nH]cc(CCN(C(C)C)C(C)C)c2c1	inactive: -6.57% [at 116 µM]
CCN(CC)C(=O)c1ccc(NC(=O)CCn2nc(-c3ccc(Cl)cc3)c3ccccc3c2=O)cc1	inactive: 2.34% [at 11.5 µM]
Cc1ccc(Cl)c(O)c1	inactive: 0.0901%
CN1C[C@@H](NS(=O)(=O)N(C)C)C[C@@H]2c3cccc4c3c(cn4C)C[C@H]21	inactive: -4.31%
COc1cc(CC(C)N)cc(OC)c1OC (stereo not given)	inactive: -9.64% [at 116 µM]
COc1ccc(CN2CCN(C(=O)COc3ccccc3)CC2)c(OC)c1	inactive: -30.8% [at 57.5 µM, percent change from vehicle, -100% = no light]
Cc1cccc(C2CC(=O)Oc3c2c(=O)oc2ccccc32)c1 (stereo not given)	inactive: -11.6%
Cc1c(N)nc([C@H](CC(N)=O)NC[C@@H](N)C(N)=O)nc1C(=O)N[C@H](C(=O)N[C@@H](C)[C@H](O)[C@@H](C)C(=O)N[C@@H](C(=O)NCCc1nc(-c2nc(C(=O)NCCC[S+](C)C)cs2)cs1)[C@@H](C)O)C(O[C@H]1O[C@H](CO)[C@H](O)[C@@H](O)[C@@H]1O[C@H]1O[C@H](CO)[C@@H](O)[C@H](OC(N)=O)[C@H]1O)c1cnc[nH]1 (stereo not given in full)	inactive: -32.3%
C[C@]12CC[C@H]3[C@@H](CCC4=CC(=O)CC[C@@]43C)[C@H]1CC[C@H]2OC(=O)CCC1CCCC1	inactive: -8.14%
c1cc2c(cc1[C@H]1OC[C@H]3[C@H]1CO[C@H]3c1ccc3c(c1)OCO3)OCO2	inactive: -18.1%
CCCCOC(=O)c1ccccc1C(=O)OCc1ccccc1	inactive: -8.17% [at 116 µM]
O=C(O)CCCc1ccc(N(CCCl)CCCl)cc1	inactive: -7.41% and inactive: -12.6%
C#CCOC(C(=O)OCCN(C)C)(c1ccccc1)c1ccccc1	inactive: 1.25%
COc1cccc(C(=O)CCN[C@@H](C)[C@H](O)c2ccccc2)c1	inactive: -7.21%
Cc1cccc(Cn2cccc(C(=O)Nc3cc(C)on3)c2=O)c1	inactive: -13.6%
COc1ccc(C(=O)N2CCCC2=O)cc1	inactive: -17.1% and inactive: -6.32%
COc1ccc(OC)c(CC(C)N)c1 (stereo not given)	inactive: -13.7% [at 116 µM]
CN1C(=S)CN=C(c2ccccc2)c2cc(Cl)ccc21	inactive: -11.9%
C[C@]12CC[C@@H]3[C@@H](CCC4=CC(=O)CC[C@@H]43)[C@@H]1CC[C@@H]2OC(=O)CCc1ccccc1	inactive: -2.75%

From PubChem BioAssay AID1508624 (National Center for Advancing Translational Sciences (NCATS), 2021)
